The other results are listed elsewhere or left out. The full chains were built here from the parent and the listed change. Inactive controls read about 0.05.
B1: TEV protease; numbered along this chain (parent)
chain: MGESLFKGPRDYNPISSSICHLTNESDGHTTSLYGIGFGPFIITNKHLFRRNNGTLVVQSLHGVFKVKDTTTLQQHLVDGRDMIIIRMPKDFPPFPQKLKFREPQREERICLVTTNFQTKSMSSMVSDTSCTFPSGDGIFWKHWIQTKDGQCGSPLVSTRDGFIVGIHSASNFTNTNNYFTSVPKNFMELLTNQEAQQWVSGWRLNADSVLWGGHKVFMVKPEEPFQPVKEATQL

Variants of: B1
Test: raw area under fraction-flipped curve 0-4 h after induction (AUC4h, not background-subtracted), DNA-recorder readout of cleavage of the substrate (dimensionless); higher = more cleavage of the substrate by the protease variant
Details: temperature: 34 °C; time window: 0-4 h after rhamnose induction
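Note: Bxb1 expression induced with 0.2% (w/v) L-rhamnose at OD600 near 0.5, cultures sampled hourly, flipped fraction per protease–substrate barcode pair counted by paired-end Illumina sequencing.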

| Variant | area with substrate ENCYFQS | area with substrate ENDYFQS | area with substrate ENEYFQS | area with substrate ENFYFQS | area with substrate ENGYFQS | area with substrate ENIYFQS | area with substrate ENQYFQS | area with substrate ENVYFQS | area with substrate ENNYFQS | area with substrate ENPYFQS | area with substrate ENRYFQS | area with substrate ENSYFQS | area with substrate ENTYFQS | area with substrate ENYYFQS | area with substrate ENAYFQS | area with substrate ENHYFQS | area with substrate ENKYFQS | area with substrate ENWYFQS | area with substrate ENMYFQS |
| --- | --- | --- | --- | --- | --- | --- | --- | --- | --- | --- | --- | --- | --- | --- | --- | --- | --- | --- | --- |
| M219T | 0.0606 | 0.053 | 0.0574 | 0.0627 | 0.0439 | 0.0774 | 0.071 | 0.0701 | – | – | – | – | – | – | – | – | – | – | – |
| T115Y | 0.0565 | 0.0591 | – | 0.056 | – | 0.128 | 0.0644 | – | 0.0681 | 0.0517 | 0.0459 | 0.0608 | 0.0533 | 0.0724 | – | – | – | – | – |
| Q227W | 0.0451 | 0.0683 | 0.0414 | – | 0.0649 | – | 0.0646 | 0.0767 | 0.081 | – | – | 0.0684 | 0.0537 | 0.0558 | 0.0668 | 0.0685 | 0.0732 | 0.0402 | – |
| D11F | 0.0725 | 0.0608 | 0.0555 | 0.0756 | 0.0627 | 0.175 | 0.0608 | 0.0853 | 0.0669 | – | 0.0598 | – | 0.0733 | 0.0393 | – | 0.0371 | – | – | 0.079 |
| F226Q | 0.0828 | 0.0532 | – | 0.0795 | 0.0619 | – | 0.0675 | 0.0711 | 0.0741 | – | – | – | 0.0541 | 0.0639 | – | 0.0527 | – | 0.0396 | – |
| F226G | – | 0.0705 | 0.072 | 0.0467 | 0.0647 | – | 0.0601 | 0.0793 | 0.0535 | 0.0625 | 0.0662 | 0.0844 | – | 0.053 | 0.0628 | – | 0.0597 | – | – |
| F226E | – | 0.0575 | 0.0661 | 0.0641 | 0.0716 | 0.101 | 0.0592 | 0.076 | 0.0745 | 0.0553 | 0.0502 | 0.0624 | – | 0.0651 | 0.0623 | – | – | – | 0.0884 |
| Q97A | 0.0705 | 0.059 | 0.0595 | 0.0676 | 0.0581 | – | 0.0524 | 0.0741 | 0.0644 | 0.0519 | – | 0.0443 | 0.0783 | – | – | – | – | – | 0.086 |
| Q97H | 0.0512 | – | 0.0575 | 0.0482 | – | – | 0.0602 | – | 0.0613 | 0.056 | 0.0601 | 0.0652 | 0.0577 | – | – | 0.0473 | 0.0659 | – | 0.0867 |
| F163I | 0.0642 | 0.0452 | 0.0578 | 0.0904 | 0.0509 | 0.102 | 0.057 | 0.0717 | 0.05 | – | 0.0537 | – | 0.053 | – | – | – | 0.0682 | 0.0755 | 0.097 |
| K230S | 0.0658 | 0.0539 | – | 0.0512 | – | 0.109 | 0.0636 | 0.0507 | 0.0624 | – | 0.0566 | – | 0.0738 | – | – | 0.0425 | 0.0678 | 0.0512 | 0.0761 |
| V157E | 0.0369 | 0.055 | – | 0.0412 | – | 0.0462 | 0.0783 | 0.047 | 0.0415 | – | 0.0589 | 0.0745 | – | – | – | 0.0494 | 0.0498 | – | 0.0477 |
| P134W | 0.0532 | 0.0451 | 0.0496 | 0.073 | 0.0438 | – | 0.0608 | – | 0.053 | – | 0.0414 | 0.0605 | – | 0.0185 | – | – | – | – | – |
| Q234V | – | 0.0611 | 0.0712 | 0.0692 | – | – | 0.064 | 0.0778 | – | 0.0422 | – | 0.053 | 0.0579 | 0.0637 | 0.076 | 0.0644 | – | – | 0.0596 |
| G63R | – | 0.0541 | 0.0588 | 0.088 | – | – | 0.0558 | 0.0814 | 0.0659 | 0.065 | 0.0503 | 0.0583 | – | – | – | 0.0205 | – | – | – |
| P225K | 0.079 | 0.0593 | 0.0555 | – | 0.0585 | 0.135 | 0.0587 | 0.0592 | – | – | – | 0.0585 | 0.0561 | – | 0.0674 | 0.0527 | 0.0665 | – | – |
| P225C | 0.0532 | – | – | – | 0.0616 | 0.0847 | 0.0546 | 0.0899 | 0.0595 | – | – | 0.0971 | 0.0602 | – | 0.078 | 0.054 | – | – | 0.091 |
| H76D | 0.0545 | – | 0.0229 | 0.0591 | 0.0401 | – | 0.0269 | – | – | 0.0631 | 0.0675 | – | 0.0448 | – | – | 0.0728 | 0.0502 | 0.0566 | – |
| L235E | 0.064 | – | – | 0.0631 | – | – | 0.0433 | – | – | – | – | – | – | – | – | 0.0664 | – | – | 0.0721 |
| L235Q | 0.0548 | 0.0498 | – | 0.0569 | 0.071 | – | 0.0682 | 0.084 | 0.078 | – | – | – | 0.0563 | – | 0.0542 | 0.0589 | 0.0693 | – | – |
| F38K | 0.0594 | 0.0583 | 0.0512 | 0.0503 | 0.0729 | – | 0.0487 | 0.0516 | 0.061 | – | 0.052 | 0.0528 | – | – | – | – | 0.0465 | 0.0382 | 0.043 |
| N53D | 0.0634 | 0.0616 | 0.0635 | 0.0646 | 0.0655 | – | 0.0629 | – | 0.0721 | 0.0513 | 0.0169 | 0.0886 | 0.0705 | 0.0453 | – | – | 0.0884 | 0.021 | – |
| P184F | 0.0952 | 0.0504 | 0.0721 | – | – | – | 0.0518 | 0.0527 | – | 0.0647 | 0.0337 | 0.0585 | 0.0585 | 0.0598 | – | 0.0674 | 0.0614 | 0.0613 | – |
| S4Y | 0.0359 | 0.0555 | – | – | 0.0581 | 0.0822 | 0.0566 | 0.0825 | 0.0552 | 0.0489 | – | 0.071 | – | 0.0466 | – | – | 0.0616 | – | – |
| S26E | – | 0.0581 | 0.0593 | 0.0656 | 0.0695 | – | 0.0496 | 0.0854 | 0.0822 | – | 0.0099 | 0.0551 | 0.0621 | 0.0779 | – | – | – | 0.0372 | 0.057 |
| I15M | – | 0.0451 | 0.0576 | 0.0606 | 0.0692 | – | 0.058 | 0.0848 | 0.0439 | – | 0.0611 | 0.056 | 0.0594 | 0.0655 | – | – | – | 0.034 | – |
| L73Q | 0.0579 | 0.0315 | 0.0509 | – | 0.0525 | – | 0.05 | 0.0628 | 0.0627 | 0.056 | 0.0466 | 0.0581 | 0.0603 | – | – | 0.043 | – | – | – |
| F187Y | 0.07 | 0.0637 | 0.0644 | 0.0549 | 0.0606 | 0.0816 | 0.0539 | 0.0659 | 0.0591 | – | – | 0.0587 | – | 0.064 | – | – | 0.0486 | – | 0.0597 |
| A170Y | 0.0642 | 0.0691 | – | – | 0.0625 | 0.0599 | 0.0623 | 0.0564 | 0.0566 | 0.0708 | 0.0522 | 0.0531 | – | – | – | 0.0604 | – | – | 0.0518 |

Source: the supplement of paper PMC12217912
